Measured values from patent EP4477673A1, “IMMUNOCONJUGATE AND USE THEREOF” (priority 2022, dated 2023).
Blank lines part the entries; values can stand above or below the binder they belong to.

Key:
human PD-1 = human PD-1 (human, UniProt Q15116 25-288); assay: cell-based or functional assay
IL-2Rβ/γ on M07e cells = molecular target: T1, IL-2Rβ/γ on M07e cells (human, UniProt P14784 27-551; P31785 23-369); assay: cell-based or functional assay
T1 sequence (looked up) 1: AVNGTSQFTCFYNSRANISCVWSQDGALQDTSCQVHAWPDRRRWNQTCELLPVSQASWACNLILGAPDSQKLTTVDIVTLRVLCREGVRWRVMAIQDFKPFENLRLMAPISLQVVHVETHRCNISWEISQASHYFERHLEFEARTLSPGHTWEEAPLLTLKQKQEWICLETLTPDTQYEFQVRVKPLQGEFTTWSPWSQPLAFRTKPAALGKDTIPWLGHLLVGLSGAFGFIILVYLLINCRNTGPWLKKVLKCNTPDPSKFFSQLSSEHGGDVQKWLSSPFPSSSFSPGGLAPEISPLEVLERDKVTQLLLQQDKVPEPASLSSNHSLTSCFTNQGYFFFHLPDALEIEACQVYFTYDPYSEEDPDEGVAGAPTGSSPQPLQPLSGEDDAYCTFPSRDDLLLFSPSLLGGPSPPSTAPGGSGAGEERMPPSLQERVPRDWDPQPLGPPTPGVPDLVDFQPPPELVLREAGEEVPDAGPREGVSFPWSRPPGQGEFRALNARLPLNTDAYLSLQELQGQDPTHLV
T1 sequence (looked up) 2: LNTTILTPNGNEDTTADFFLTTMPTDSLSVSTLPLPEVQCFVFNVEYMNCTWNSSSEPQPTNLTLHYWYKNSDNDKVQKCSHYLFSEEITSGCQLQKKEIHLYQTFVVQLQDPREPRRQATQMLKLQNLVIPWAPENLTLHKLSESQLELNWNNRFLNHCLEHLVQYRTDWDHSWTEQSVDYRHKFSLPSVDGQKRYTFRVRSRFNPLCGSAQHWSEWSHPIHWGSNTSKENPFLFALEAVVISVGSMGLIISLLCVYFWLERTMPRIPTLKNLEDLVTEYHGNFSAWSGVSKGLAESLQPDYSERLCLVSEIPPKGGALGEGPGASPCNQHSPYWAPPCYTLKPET

Chain of human PD-1 (Q15116 25-288 limits assumed): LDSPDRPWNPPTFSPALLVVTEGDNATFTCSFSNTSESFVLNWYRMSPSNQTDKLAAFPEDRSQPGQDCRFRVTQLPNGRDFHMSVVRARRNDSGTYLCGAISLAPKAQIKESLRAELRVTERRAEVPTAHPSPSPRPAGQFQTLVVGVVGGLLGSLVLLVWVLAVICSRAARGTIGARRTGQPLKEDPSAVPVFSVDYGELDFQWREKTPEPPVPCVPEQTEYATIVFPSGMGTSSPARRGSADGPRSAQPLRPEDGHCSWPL

- M07e-hPD1 proliferation, EC50 (human PD-1): 0.032 nM
- M07e-hPD1 proliferation, Maximal fluorescence value (Max Lum) (human PD-1): 7.02e+06 Lum
- M07e proliferation, EC50 (IL-2Rβ/γ on M07e cells): 84.6 nM
- M07e proliferation, Maximal fluorescence value (Max Lum) (IL-2Rβ/γ on M07e cells): 4.24e+06 Lum
B1: A-V91T (Fc fusion)
chain 1: EVQLQESGGGLVQPGGSLRLSCTASGLTFSDYSMSWYRQAPGKGRELVAIISGSGVIAHYVDSVKGRFTISRDNSKNTVYLQMRSLTPEDRAVYYCRAVSDWDDYWGQGTQVTVSS[human IgG1 Fc with changes not written out]GGGGSGGGGSGGGGSAPASSSTKKTQLQLEHLLLDLQMILNGINNYKNPKLTEMLTAKFYMPKKATELKHLQCLEEELKPLEEVLNLAQSKNFHLRPRDLISNINTIVLELKGSETTFMCEYADETATIVEFLNRWITFAQSIISTLT
chain 2: EVQLQESGGGLVQPGGSLRLSCTASGLTFSDYSMSWYRQAPGKGRELVAIISGSGVIAHYVDSVKGRFTISRDNSKNTVYLQMRSLTPEDRAVYYCRAVSDWDDYWGQGTQVTVSSEPKSSDKTHTCPPCPAPEAAGGPSVFLFPPKPKDTLMISRTPEVTCVVVDVSHEDPEVKFNWYVDGVEVHNAKTKPREEQYNSTYRVVSVLTVLHQDWLNGKEYKCKVSNKALGAPIEKTISKAKGQPREPQVCTLPPSRDELTKNQVSLSCAVKGFYPSDIAVEWESNGQPENNYKTTPPVLDSDGSFFLVSKLTVDKSRWQQGNVFSCSVMHEALHNRFTQKSLSLSP

- M07e-hPD1 proliferation, EC50 (human PD-1): 0.01 nM
- M07e-hPD1 proliferation, Maximal fluorescence value (Max Lum) (human PD-1): 6.72e+06 Lum
- M07e proliferation, EC50 (IL-2Rβ/γ on M07e cells): 54.3 nM
- M07e proliferation, Maximal fluorescence value (Max Lum) (IL-2Rβ/γ on M07e cells): 3.9e+06 Lum
B2: C-V91T (Fc fusion)
heavy: QVQLVQSGVEVKKPGASVKVSCKASGYTFTNYYMYWVRQAPGQGLEWMGGINPSNGGTNFNEKFKNRVTLTTDSSTTTAYMELKSLQFDDTAVYYCARRDYRFDMGFDYWGQGTTVTVSSASTKGPSVFPLAPSSKSTSGGTAALGCLVKDYFPEPVTVSWNSGALTSGVHTFPAVLQSSGLYSLSSVVTVPSSSLGTQTYICNVNHKPSNTKVDKKV[human IgG1 Fc with changes not written out]GGGGSGGGGSGGGGSAPASSSTKKTQLQLEHLLLDLQMILNGINNYKNPKLTEMLTAKFYMPKKATELKHLQCLEEELKPLEEVLNLAQSKNFHLRPRDLISNINTIVLELKGSETTFMCEYADETATIVEFLNRWITFAQSIISTLT
chain: B1 chain 2
light: EIVLTQSPATLSLSPGERATLSCRASKGVSTSGYSYLHWYQQKPGQAPRLLIYLASYLESGVPARFSGSGSGTDFTLTISSLEPEDFAVYYCQHSRDLPLTFGGGTKVEIKRTVAAPSVFIFPPSDEQLKSGTASVVCLLNNFYPREAKVQWKVDNALQSGNSQESVTEQDSKDSTYSLSSTLTLSKADYEKHKVYACEVTHQGLSSPVTKSFNRGEC

- M07e-hPD1 proliferation, EC50 (human PD-1): 0.761 nM
- M07e-hPD1 proliferation, Maximal fluorescence value (Max Lum) (human PD-1): 7.6e+06 Lum
- M07e proliferation, Maximal fluorescence value (Max Lum) (IL-2Rβ/γ on M07e cells): 4.11e+06 Lum
B3: E-V91T (Fc fusion)
heavy 1: EVQLQESGGGLVQPGGSLRLSCTASGLTFSDYSMSWYRQAPGKGRELVAIISGSGVIAHYVDSVKGRFTISRDNSKNTVYLQMRSLTPEDRAVYYCRAVSDWDDYWGQGTQVTVSSGGGGSGGGGSQVQLVQSGVEVKKPGASVKVSCKASGYTFTNYYMYWVRQAPGQGLEWMGGINPSNGGTNFNEKFKNRVTLTTDSSTTTAYMELKSLQFDDTAVYYCARRDYRFDMGFDYWGQGTTVTVSSASTKGPSVFPLAPSSKSTSGGTAALGCLVKDYFPEPVTVSWNSGALTSGVHTFPAVLQSSGLYSLSSVVTVPSSSLGTQTYICNVNHKPSNTKVDKKV[human IgG1 Fc with changes not written out]GGGGSGGGGSGGGGSAPASSSTKKTQLQLEHLLLDLQMILNGINNYKNPKLTEMLTAKFYMPKKATELKHLQCLEEELKPLEEVLNLAQSKNFHLRPRDLISNINTIVLELKGSETTFMCEYADETATIVEFLNRWITFAQSIISTLT
heavy 2: EVQLQESGGGLVQPGGSLRLSCTASGLTFSDYSMSWYRQAPGKGRELVAIISGSGVIAHYVDSVKGRFTISRDNSKNTVYLQMRSLTPEDRAVYYCRAVSDWDDYWGQGTQVTVSSGGGGSGGGGSQVQLVQSGVEVKKPGASVKVSCKASGYTFTNYYMYWVRQAPGQGLEWMGGINPSNGGTNFNEKFKNRVTLTTDSSTTTAYMELKSLQFDDTAVYYCARRDYRFDMGFDYWGQGTTVTVSSASTKGPSVFPLAPSSKSTSGGTAALGCLVKDYFPEPVTVSWNSGALTSGVHTFPAVLQSSGLYSLSSVVTVPSSSLGTQTYICNVNHKPSNTKVDKKVEPKSCDKTHTCPPCPAPEAAGGPSVFLFPPKPKDTLMISRTPEVTCVVVDVSHEDPEVKFNWYVDGVEVHNAKTKPREEQYNSTYRVVSVLTVLHQDWLNGKEYKCKVSNKALGAPIEKTISKAKGQPREPQVCTLPPSRDELTKNQVSLSCAVKGFYPSDIAVEWESNGQPENNYKTTPPVLDSDGSFFLVSKLTVDKSRWQQGNVFSCSVMHEALHNRFTQKSLSLSP
light: B2 light
